As a reminder, the % Inhibition is the change of the read-out against control, counted positive when it falls.

The whole screen tested about 150,000 compounds, of which about 540 (0.36%) showed an effect of 50% or more. The list shows a part of the results.

This test relates to Plasmodium falciparum. The test can be described thus: Primary screen in NF54 nanoGlo assay, in single point, at 2uM, 72h; a lower Z score goes with more inhibition. It counts as functional, Erythrocyte. As to conditions: timepoint 72 hour.
`C=CCN(CC=C)C(=O)Cn1ccnc1`: the “% Inhibition” value is listed as 0% and the Z score was 0.05.
In the case of `Cn1nnc2c(C(=O)NC[C@]3(O)CCCC3(C)C)ccnc21`, the “% Inhibition” value was 6% and the Z score is recorded as -1.13.
For the molecule `Cn1cnc(C(=O)N2CCCCCC2CC(O)c2ccco2)c1` (stereo not drawn), the “% Inhibition” value is given as -14% and the Z score stood at 2.03.
On the same counts, the results for `C#CCCC1(CCC(=O)N(C)C[C@H]2CN(CC)c3ccccc3O2)N=N1` are -7% and 0.85.
The matching figures for `C[C@H]1CN(C(=O)COCc2ccccc2)C[C@]1(O)C1CC1`: -2% and 0.3.
The matching figures for `C[C@@H](c1noc(-c2ccccc2O)n1)n1ccnc1`: -7% and 0.8.
With `CN(Cc1cccc(C#N)c1)CC1(CO)CCC1`, the “% Inhibition” value was -3% and the Z score turned out to be 0.45.
With `CCc1nc(CNC(=O)NC[C@H](O)COc2ccc(Cl)c(C)c2)no1`, the “% Inhibition” value is on record as -14% and the Z score came to 2.44.
The matching figures for `CN(C)c1ncccc1NC(=O)c1coc(CC2CC2)n1`: -12% and 1.68.
The matching figures for `CCCc1nn(-c2ccc(Cl)cc2)c(=O)n1CC(=O)NC[C@H]1CCCO1`: -5% and 1.04.
On the same counts, the results for `CCCC1CN(C(=O)C2CCOC(C)C2)CCN1C(=O)C1CCOC(C)C1` (stereo not drawn) are 1% and -0.28.
Turning to `CN1N=C(C(=O)NCCc2nc3c(s2)CCC3)CCC1=O`, the “% Inhibition” value was -7% and the Z score is 1.25.
With `Cc1cc(NC(=O)[C@@H]2CCCN2S(C)(=O)=O)cc2sc(N)nc12`, the “% Inhibition” value is -4% and the Z score stood at 0.5.
With `CCc1noc2nc(C)nc(NCc3cccc(Cl)c3)c12`, the “% Inhibition” value was determined as 0% and the Z score was determined as 0.
The matching figures for `COc1cccc(-c2ccc(N3CCN(C(=O)CN(CCc4ccccc4)C(=O)c4ccco4)CC3)nn2)c1`: -17% and 2.44.
The matching figures for `Cc1cc(C)cc(OCCN2C(=O)c3ccccc3CS2(=O)=O)c1`: -10% and 1.31.
On the same counts, the results for `Cc1nc(N2CCOCC2)cc(N2CCN(C(=O)c3cccc(Br)c3)CC2)n1` are 31% and -4.18.
Turning to `CC(C)N(CCCNC(=O)c1cnn2c3c(cnc12)CCCCCC3)Cc1ccccc1`, the “% Inhibition” value came to 37% and the Z score is on record as -0.86.
The matching figures for `O=C(c1cnn(-c2ccccc2)n1)N(c1ccccc1)C1CCCCC1`: 5% and -0.68.
On the same counts, the results for `CCN(CCNC(=O)[C@]1(C)COCc2nnc(C3CC3)n21)c1ccccc1` are -17% and 1.92.
Regarding `CNc1ccccc1C(C)(C)c1cc(=O)[nH][nH]1`, the “% Inhibition” value is on record as -12% and the Z score is listed as 1.25.
Turning to `COCCn1ccnc1C1N(C(=O)C(N)C2CCC2)CC1(C)C` (stereo not drawn), the “% Inhibition” value is listed as 0% and the Z score is reported as 0.05.
On the same counts, the results for `COc1cccc(CC(=O)N2CCOc3ccc(CN4CCOCC4)cc3C2)c1` are -21% and 2.23.
For the molecule `CCCN(Cc1c(-c2cccc(C)c2)noc1N1CCOCC1)C(=O)c1ccc(Cl)cc1`, the “% Inhibition” value is given as -13% and the Z score turned out to be 2.1.
